These are yes or no findings as the source states them, for the method shown. Some results given as binding are weak or reduced against the parent protein; the word gives no strength.
T1: CBL-interacting protein kinase 1 (CIPK1) (Arabidopsis thaliana) (UniProt Q8RWC9)
T1 sequence: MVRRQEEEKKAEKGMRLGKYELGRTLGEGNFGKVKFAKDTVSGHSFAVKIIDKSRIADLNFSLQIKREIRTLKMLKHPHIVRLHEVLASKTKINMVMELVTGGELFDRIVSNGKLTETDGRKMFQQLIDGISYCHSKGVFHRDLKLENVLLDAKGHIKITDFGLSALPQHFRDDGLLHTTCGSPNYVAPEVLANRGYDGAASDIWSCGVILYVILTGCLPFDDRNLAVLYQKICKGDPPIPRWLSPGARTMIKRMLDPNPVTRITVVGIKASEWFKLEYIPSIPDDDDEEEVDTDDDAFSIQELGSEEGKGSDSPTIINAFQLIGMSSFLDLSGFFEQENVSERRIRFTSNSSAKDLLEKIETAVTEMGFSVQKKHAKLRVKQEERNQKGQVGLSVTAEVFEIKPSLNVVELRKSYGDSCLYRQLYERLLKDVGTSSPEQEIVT

Chains of the proteins cited; added tags and fusions are not shown.
UniProt Q8RWY4: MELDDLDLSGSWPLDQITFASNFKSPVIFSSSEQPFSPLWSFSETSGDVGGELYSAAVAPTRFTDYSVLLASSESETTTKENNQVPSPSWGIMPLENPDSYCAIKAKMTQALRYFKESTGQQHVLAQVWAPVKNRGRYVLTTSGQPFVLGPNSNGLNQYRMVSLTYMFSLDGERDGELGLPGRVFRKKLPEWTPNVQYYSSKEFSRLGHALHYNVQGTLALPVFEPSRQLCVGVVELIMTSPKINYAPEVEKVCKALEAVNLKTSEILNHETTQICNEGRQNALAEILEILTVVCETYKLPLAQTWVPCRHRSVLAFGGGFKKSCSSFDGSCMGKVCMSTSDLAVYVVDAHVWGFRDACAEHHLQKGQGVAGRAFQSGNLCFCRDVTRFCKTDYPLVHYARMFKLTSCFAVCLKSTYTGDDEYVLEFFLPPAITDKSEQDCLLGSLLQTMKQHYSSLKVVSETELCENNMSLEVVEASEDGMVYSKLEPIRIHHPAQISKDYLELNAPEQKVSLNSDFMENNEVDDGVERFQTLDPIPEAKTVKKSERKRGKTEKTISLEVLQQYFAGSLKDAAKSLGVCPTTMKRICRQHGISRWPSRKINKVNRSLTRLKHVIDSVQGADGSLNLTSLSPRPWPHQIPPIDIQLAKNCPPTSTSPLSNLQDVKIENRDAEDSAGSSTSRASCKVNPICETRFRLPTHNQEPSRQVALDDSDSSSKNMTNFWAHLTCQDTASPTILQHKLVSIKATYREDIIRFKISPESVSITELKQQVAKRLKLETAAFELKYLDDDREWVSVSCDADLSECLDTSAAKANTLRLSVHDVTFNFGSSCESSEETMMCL
UniProt Q84TH9: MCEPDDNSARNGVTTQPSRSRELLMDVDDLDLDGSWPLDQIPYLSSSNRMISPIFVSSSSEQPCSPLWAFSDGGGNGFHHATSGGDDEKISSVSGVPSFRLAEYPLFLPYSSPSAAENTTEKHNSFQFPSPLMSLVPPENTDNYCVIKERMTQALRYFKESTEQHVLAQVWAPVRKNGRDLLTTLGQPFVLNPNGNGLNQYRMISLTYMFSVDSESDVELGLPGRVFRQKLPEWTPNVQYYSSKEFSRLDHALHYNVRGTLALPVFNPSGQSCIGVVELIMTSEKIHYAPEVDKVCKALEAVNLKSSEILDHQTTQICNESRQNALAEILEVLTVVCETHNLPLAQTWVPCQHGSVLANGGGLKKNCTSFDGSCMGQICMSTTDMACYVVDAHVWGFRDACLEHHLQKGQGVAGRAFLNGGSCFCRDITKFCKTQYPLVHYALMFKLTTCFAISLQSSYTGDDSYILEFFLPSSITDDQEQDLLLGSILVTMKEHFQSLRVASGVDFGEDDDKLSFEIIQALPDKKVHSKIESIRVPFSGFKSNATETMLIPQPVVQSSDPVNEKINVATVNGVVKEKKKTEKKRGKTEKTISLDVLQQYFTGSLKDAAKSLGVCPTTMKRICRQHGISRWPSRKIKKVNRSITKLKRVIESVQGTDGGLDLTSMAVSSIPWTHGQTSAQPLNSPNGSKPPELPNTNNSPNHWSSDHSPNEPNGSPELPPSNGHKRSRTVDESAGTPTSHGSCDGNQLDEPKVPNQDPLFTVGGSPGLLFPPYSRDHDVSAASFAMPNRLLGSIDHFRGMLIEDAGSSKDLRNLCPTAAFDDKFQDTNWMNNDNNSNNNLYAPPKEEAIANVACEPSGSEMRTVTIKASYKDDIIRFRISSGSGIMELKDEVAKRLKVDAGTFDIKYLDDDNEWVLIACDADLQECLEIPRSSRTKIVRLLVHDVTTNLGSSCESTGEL
UniProt O82811: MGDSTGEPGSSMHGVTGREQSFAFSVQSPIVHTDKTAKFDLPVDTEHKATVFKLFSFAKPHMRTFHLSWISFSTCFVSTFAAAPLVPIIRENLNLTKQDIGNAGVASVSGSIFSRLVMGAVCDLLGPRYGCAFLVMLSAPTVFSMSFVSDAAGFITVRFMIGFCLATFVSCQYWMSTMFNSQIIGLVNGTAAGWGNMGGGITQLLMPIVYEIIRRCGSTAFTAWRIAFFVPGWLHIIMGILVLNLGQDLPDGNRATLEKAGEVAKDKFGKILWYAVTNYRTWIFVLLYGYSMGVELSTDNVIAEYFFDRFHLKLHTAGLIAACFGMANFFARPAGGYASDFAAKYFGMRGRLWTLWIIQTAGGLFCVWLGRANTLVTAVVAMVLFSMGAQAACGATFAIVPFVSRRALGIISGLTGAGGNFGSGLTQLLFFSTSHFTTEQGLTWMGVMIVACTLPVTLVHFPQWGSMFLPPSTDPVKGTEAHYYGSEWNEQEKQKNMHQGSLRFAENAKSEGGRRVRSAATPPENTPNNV
UniProt Q9LSD5: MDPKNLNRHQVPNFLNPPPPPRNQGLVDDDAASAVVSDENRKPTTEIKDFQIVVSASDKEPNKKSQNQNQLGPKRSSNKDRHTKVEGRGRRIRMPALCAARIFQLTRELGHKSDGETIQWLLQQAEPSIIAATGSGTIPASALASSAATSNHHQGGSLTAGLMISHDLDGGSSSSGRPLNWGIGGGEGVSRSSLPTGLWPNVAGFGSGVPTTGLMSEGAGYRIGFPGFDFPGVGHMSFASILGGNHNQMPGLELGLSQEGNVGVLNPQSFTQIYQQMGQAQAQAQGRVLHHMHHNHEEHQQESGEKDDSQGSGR


Biological target: T1, CBL-interacting protein kinase 1 (CIPK1) (Arabidopsis thaliana)
Test: two-hybrid; yeast two-hybrid; growth on synthetic dropout medium lacking threonine, leucine, and histidine (SD/-TLH); full-length cDNAs; which partner was on AD or BD not stated

| Molecule | binding |
| --- | --- |
| NIN-like protein 6 (NLP6) (from UniProt Q8RWY4 1-841) | no binding |
| NIN-like protein 7 (NLP7) (from UniProt Q84TH9 1-959) | no binding |
| NRT2.1 (from UniProt O82811 1-530) | no binding |
| NRT2.2 (from UniProt Q9LMZ9 1-522) | no binding |
| teosintebranched 1/cycloidea/proliferating cell factor 1-20 (TCP20) (from UniProt Q9LSD5 1-314) | binds |
| NRT1.1/NPF6.3/chlorate resistant 1 (CHL1) (protein, UniProt Q05085 1-590) MSLPETKSDDILLDAWDFQGRPADRSKTGGWASAAMILCIEAVERLTTLGIGVNLVTYLTGTMHLGNATAANTVTNFLGTSFMLCLLGGFIADTFLGRYLTIAIFAAIQATGVSILTLSTIIPGLRPPRCNPTTSSHCEQASGIQLTVLYLALYLTALGTGGVKASVSGFGSDQFDETEPKERSKMTYFFNRFFFCINVGSLLAVTVLVYVQDDVGRKWGYGICAFAIVLALSVFLAGTNRYRFKKLIGSPMTQVAAVIVAAWRNRKLELPADPSYLYDVDDIIAAEGSMKGKQKLPHTEQFRSLDKAAIRDQEAGVTSNVFNKWTLSTLTDVEEVKQIVRMLPIWATCILFWTVHAQLTTLSVAQSETLDRSIGSFEIPPASMAVFYVGGLLLTTAVYDRVAIRLCKKLFNYPHGLRPLQRIGLGLFFGSMAMAVAALVELKRLRTAHAHGPTVKTLPLGFYLLIPQYLIVGIGEALIYTGQLDFFLRECPKGMKGMSTGLLLSTLALGFFFSSVLVTIVEKFTGKAHPWIADDLNKGRLYNFYWLVAVLVALNFLIFLVFSKWYVYKEKRLAEVGIELDDEPSIPMGH | no binding |
| NRT2.5 (protein, UniProt Q9LPV5 1-502) MEVEGKGGEAGTTTTTAPRRFALPVDAENKATTFRLFSVAKPHMRAFHLSWFQFFCCFVSTFAAPPLLPVIRENLNLTATDIGNAGIASVSGAVFARIVMGTACDLFGPRLASAALTLSTAPAVYFTAGIKSPIGFIMVRFFAGFSLATFVSTQFWMSSMFSGPVVGSANGIAAGWGNLGGGATQLIMPIVFSLIRNMGATKFTAWRIAFFIPGLFQTLSAFAVLLFGQDLPDGDYWAMHKSGEREKDDVGKVISNGIKNYRGWITALAYGYCFGVELTIDNIIAEYFFDRFHLKLQTAGIIAASFGLANFFARPGGGIFSDFMSRRFGMRGRLWAWWIVQTSGGVLCACLGQISSLTVSIIVMLVFSVFVQAACGLTFGVVPFISRRSLGVVSGMTGAGGNVGAVLTQLIFFKGSTYTRETGITLMGVMSIACSLPICLIYFPQWGGMFCGPSSKKVTEEDYYLAEWNDEEKEKNLHIGSQKFAETSISERGRATTTHPQT | no binding |
| TGACG motif-binding factor 4 (TGA4) (protein, UniProt Q39162 1-364) MNTTSTHFVPPRRFEVYEPLNQIGMWEESFKNNGDMYTPGSIIIPTNEKPDSLSEDTSHGTEGTPHKFDQEASTSRHPDKIQRRLAQNREAARKSRLRKKAYVQQLETSRLKLIHLEQELDRARQQGFYVGNGVDTNALSFSDNMSSGIVAFEMEYGHWVEEQNRQICELRTVLHGQVSDIELRSLVENAMKHYFQLFRMKSAAAKIDVFYVMSGMWKTSAERFFLWIGGFRPSELLKVLLPHFDPLTDQQLLDVCNLRQSCQQAEDALSQGMEKLQHTLAESVAAGKLGEGSYIPQMTCAMERLEALVSFVNQADHLRHETLQQMHRILTTRQAARGLLALGEYFQRLRALSSSWAARQREPT | no binding |
